{"source": "PubChem BioAssay AID652104", "about": "(National Center for Advancing Translational Sciences (NCATS), 2013)", "note": "About 7,200 (1.8%) of roughly 410,000 compounds were called active. Inconclusive results, whose numbers are uncertain, are shown with a selection of clear calls. The call rests on the fitted dose curve; in most records, active means well fitted activation curve with a large enough effect; inconclusive means small, poorly fitted or top-dose-only effect, or another doubt; inactive means no such curve, though single readings can be large or run the other way. No potency is given beside an inconclusive call; the fits are too rough. Potency means the concentration at half of the fitted maximal effect; tags describe the fitted curve by direction and shape."}
{"assay": "qHTS of TDP-43 Inhibitors; further: nearly all actives have a fitted effect of over 50% in size; on growth rescue (activation): % of control where 0% means no effect", "conditions": "TDP-43 expressing yeast growth rescue, BacTiter-Glo, 24 h; growth rescue (activation): at 46.1 µM (top of the series) unless noted", "outline": "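Readout is BacTiter-Glo luminescence of cell growth, so inhibitors register as activators. TDP-43-expressing yeast at OD600=0.02 in galactose medium, after raffinose pregrowth to mid-log, were incubated with compound for 24 hr at 30 deg C.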"}
{"molecule": "COc1ccccc1-c1cccc([C@@H]2C[C@H]3[C@H](CON3C)CN2C(=O)CCc2ccccc2)c1", "Potency": "active: 28.2 µM"}
{"molecule": "O=C(c1cccc(Cl)c1)n1nc(-c2cccnc2)nc1NCc1ccccc1", "Potency": "inconclusive [activator, partial curve]"}
{"molecule": "COCCNC(=O)c1cccc(Nc2nc(-c3ccccc3)c3cc(Cl)ccc3n2)c1", "Potency": "inconclusive [activator, full curve]"}
{"molecule": "O=C(O)c1ccc2c(c1)C(=O)N(c1cccc(C(=O)/C=C/c3ccccc3)c1)C2=O", "Potency": "inconclusive [activator, partial curve, poor fit]"}
{"molecule": "CCN(CC(=O)Nc1ccc2c(c1)OCCO2)C(=O)CCc1ccccc1Cl", "Potency": "inconclusive [activator, single point]"}
{"molecule": "O=C(NCc1ccccc1Cl)c1ccc(Cn2c(=O)c3cccn3c3cccnc32)cc1", "growth rescue (activation)": "inactive: 7.75%"}
{"molecule": "CC1(C)OC(=O)N(c2ccccc2)C12C=Cc1cc(Br)ccc1O2", "note": "(centres undefined)", "Potency": "inconclusive [activator, partial curve]"}
{"molecule": "Cc1nc2ccc(NS(=O)(=O)c3ccc(F)cc3)cc2s1", "Potency": "inconclusive [activator, partial curve]"}
{"molecule": "CCn1ccc2cc(S(=O)(=O)N3CCC(C(=O)NCCc4ccccc4)CC3)ccc21", "growth rescue (activation)": "inactive: 0%"}
{"molecule": "CC(C)=CCc1c(O)cc(O)c2c(=O)c3c(CC=C(C)C)c(O)ccc3oc12", "growth rescue (activation)": "inactive: -91.4%"}
{"molecule": "CCCCn1c(N)c(N2CCOCC2)c(=O)n(CC(=O)NC(C)c2ccccc2)c1=O", "note": "(centres undefined)", "Potency": "inconclusive [activator, partial curve]"}
{"molecule": "COc1ccc(C(=O)NC2CC(C)(C)Cc3c2cnn3-c2ccccc2)c(OC)c1", "note": "(centres undefined)", "Potency": "inconclusive [activator, partial curve, poor fit]"}
{"molecule": "CN(CC(=O)Nc1ccc(Cl)cc1)CC(=O)Nc1ccc(F)c(F)c1F", "Potency": "inconclusive [activator, partial curve]"}
{"molecule": "O=C(C[n+]1ccccc1)N1c2ccccc2Sc2ccccc21", "Potency": "inconclusive [activator, partial curve]"}
{"molecule": "Cc1ccc(NC(=O)CCc2ccc(C)o2)c(Br)c1", "Potency": "inconclusive [activator, single point]"}
{"molecule": "CC(=O)Nc1ccc(S(=O)(=O)Nc2nc3ccccc3nc2N2CCCCCC2)cc1", "Potency": "inconclusive [activator, single point]"}
{"molecule": "O=C(Nc1ccc(Oc2ccccc2)cc1)C1CCN(S(=O)(=O)c2ccccc2)CC1", "growth rescue (activation)": "inactive: 19.4%"}
{"molecule": "O=C(Nc1cccc(C(=O)N2CCN(c3ccc(F)cc3)CC2)c1)c1nsc2ccccc12", "Potency": "inconclusive [activator, single point]"}
{"molecule": "CCc1ccc(-c2cc(C)no2)cc1S(=O)(=O)NCCc1ccccc1", "Potency": "active: 12.6 µM"}
{"molecule": "COc1cccc(OCCn2cc(C(=O)c3ccco3)c3ccccc32)c1", "Potency": "inconclusive [activator, single point]"}
{"molecule": "COC(=O)NC1c2ccccc2Oc2ccc(C)cc21", "note": "(centres undefined)", "Potency": "active: 12.6 µM"}
{"molecule": "Cc1cccc(-c2nc(-c3ccncc3)no2)c1", "Potency": "inconclusive [activator, partial curve]"}
{"molecule": "CCc1ccc(Sc2cc(C(=O)NCCCN3CCCC(C)C3)c3ccccc3n2)cc1", "note": "(centres undefined)", "growth rescue (activation)": "inactive: 18.7%"}
{"molecule": "CC(C)c1cc(C(=O)Nc2cccc(Cl)c2)no1", "growth rescue (activation)": "inactive: -16.6%"}
{"molecule": "COC(=O)c1cc(=O)n(CCc2ccc(OC)c(OC)c2)c(=Nc2ccc(F)c(Cl)c2)s1", "growth rescue (activation)": "inactive: 25%"}
{"molecule": "CC(=O)c1ccc(N2CCN(C(=O)Cn3ncc4c3-c3ccccc3OC4)CC2)cc1", "growth rescue (activation)": "inactive: 14.2%"}
{"molecule": "COc1ccccc1/C=C/c1nc(C#N)c(NC(C)c2ccccc2)o1", "note": "(centres undefined)", "Potency": "inconclusive [activator, partial curve]"}
{"molecule": "C[C@H]1NC(=O)[C@@]2(C)[C@H](c3ccccc3)[C@H]3COc4ccccc4[C@@H]3N2C1=O", "growth rescue (activation)": "inactive: 10.1%"}
{"molecule": "NC(=O)c1cccc(Nc2nc(C(N)Cc3ccc(C(F)(F)F)cc3)cs2)n1", "note": "(centres undefined)", "Potency": "inconclusive [activator, partial curve]"}
{"molecule": "COc1ccc(CNC(=O)C(=O)NCC(c2cccs2)S(=O)(=O)c2ccc(C)cc2)cc1", "note": "(centres undefined)", "growth rescue (activation)": "inactive: 14.1%"}
{"molecule": "O=C(c1ccc(F)cc1)N1c2ncnn2C2(CCCCC2)[C@@H]2CCCC[C@@H]21", "Potency": "inconclusive [activator, partial curve]"}
{"molecule": "CC1=Nc2ccccc2/C1=C\\c1nc(-c2ccccc2)oc1O", "Potency": "inconclusive [activator, partial curve]"}
{"molecule": "CCOC(=O)c1snc2c(=O)[nH]cnc12", "growth rescue (activation)": "inactive: 16.2%"}
{"molecule": "O=Cc1cn(CCOc2ccc(F)cc2)c2ccccc12", "Potency": "inconclusive [activator, full curve]"}
{"molecule": "CC(C)=CCCC(C)=CCN1C(=O)CN(C)C1=O", "Potency": "inconclusive [activator, partial curve]"}
{"molecule": "CN(C(=O)c1cc2c(cc1Br)OCO2)c1cccc2ccccc12", "Potency": "inconclusive [activator, partial curve]"}
{"molecule": "CCOc1ccccc1C(=O)Nc1cnn(Cc2ccc(F)cc2)c1", "Potency": "inconclusive [activator, partial curve]"}
{"molecule": "COc1ccc(C2C(C#N)=C(N)Nc3onc(C(C)(C)C)c32)c(OC)c1", "note": "(centres undefined)", "Potency": "inconclusive [activator, full curve, poor fit]"}
{"molecule": "O=C(/C=N/O)Nc1ccc2sc3ccccc3c2c1", "Potency": "active: 7.94 µM"}
{"molecule": "CCOC(=O)Cc1cnc(NC(=O)Cn2nnc(-c3ccc(OCC)cc3)n2)s1", "Potency": "inconclusive [activator, partial curve]"}
{"molecule": "CCOc1ccc(/C=C2/Sc3ccc(C(=O)NCC4CCCO4)cc3N(C)C2=O)cc1OC", "note": "(centres undefined)", "Potency": "inconclusive [activator, partial curve]"}
{"molecule": "CC(=O)Nc1ccc2nc(SCc3ccccc3)sc2c1", "Potency": "active: 17.8 µM"}
{"molecule": "CCCN(CC1COc2ccccc2O1)C(=S)Nc1ccc(C)cc1", "note": "(centres undefined)", "Potency": "inconclusive [activator, partial curve]"}
{"molecule": "Cc1ccccc1C(=O)O/N=C(\\N)c1ccc([N+](=O)[O-])cc1", "Potency": "inconclusive [activator, single point]"}
